Experimental data from PubChem BioAssay AID1508624 (National Center for Advancing Translational Sciences (NCATS), 2021).
The campaign covered roughly 48,000 compounds. About 120 (0.25%) were called active. About 4% were inconclusive and are not listed. Calls follow the shape of the dose curve; as a rule, active = well fitted activation curve with a large enough effect; inconclusive = small, poorly fitted or top-dose-only effect, or another doubt; inactive = no such curve, though single readings can be large or run the other way. The list shows a part of the results.

test: Primary qHTS for Identification of Small Molecule Activators of Huntingtin-Antisense Promoter Activity; conditions: HEK293 HTT-AS promoter firefly luciferase reporter, 24 h; series mostly up to 57.5 µM; activity change, positive = activation: at the top concentration; also: nearly all actives have a fitted effect of over 55% in size
Outline: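 Firefly luciferase readout (Dual-Glo, 10 min RT) after 24 h, 37 °C compound exposure (final up to 57.5 uM) of HEK293 reporter cells cultured 24 h beforehand; PTC124 at 50 uM final as control inhibitor; activity scaled vehicle 0%, zero RLU -100%.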

Activity change, positive = activation, inactive:
CCc1ccccc1NC(=O)Cn1c(=O)n(-c2ccc(C)c(C)c2)c(=O)c2oc3ccccc3c21 -10.2%
COc1ccc(S(=O)(=O)NCCc2sc(-c3cccc(C)c3)nc2C)cc1 -19.1%
Cc1ccc(CCNC(=O)c2cccc(Nc3nc4ccccc4nc3-n3nc(C)cc3C)c2)cc1 -7.63%
COc1cc(Br)ccc1C1C(C(=O)Nc2ccc(C)cc2C)=C(C)Nc2nnnn21 (stereo not given) -26.6%
COc1ccc(CCNc2nc3ccccc3c3nc(-c4cccc(C)c4)nn23)cc1OC 29.9%
CCc1ccc(-n2nc(C)c3c(C(=O)N4CCN(c5cccc(Cl)c5)CC4)cc(C)nc32)cc1 -41.7%
Cc1nn(CC(=O)N2CCN(c3cccc(Cl)c3)CC2)c(=O)c2c1sc1ccccc12 3.4%
CCOC(=O)c1ccc(NC(=O)CCc2c(C)nc3c(c(C)nn3C(C)(C)C)c2C)cc1 -35.4%
CC(C)CCNC(=O)c1ccc(Cn2c(SCC(N)=O)nc3ccccc3c2=O)cc1 -10.3%
CCOc1cc(C(=O)OCc2cc(=O)n3nc(C4CC4)sc3n2)cc(OCC)c1OCC -10.7%
COc1cc(OC)c(NC(=O)NCc2cccn2Cc2ccccc2)cc1Cl -10.9%
CC(C)CCNC(=O)c1nn(C)c2c1CSc1ccccc1-2 13.8%
COC(=O)c1c(-c2cccs2)csc1NC(=O)c1cc(OC)c(OC)c(OC)c1 -10.8%
COc1ccc(-n2ccn(CC(=O)Nc3ccc(C)c(C)c3)c(=O)c2=O)cc1OC 2.51%
CCOc1cc2[nH]c(=O)n(CCCC(=O)NCc3ccc(OC)cc3)c(=O)c2cc1OCC -12.3%
CC1CCCN(S(=O)(=O)c2cc(C(=O)NCc3ccccc3Cl)n(C)c2)C1 (stereo not given) -30.9%
Cc1ccc(F)cc1NC(=O)CCSc1nc(-c2ccco2)cc(C(F)(F)F)n1 -14.8%
Cc1ccc(NC(=O)C(=O)NCC(c2cccnc2)N2CCc3ccccc3C2)cc1 (stereo not given) -22.7%
C=Cc1ccc(Cn2c(C(=O)O)c(CNCc3ccccc3)c3ccc(OC)cc32)cc1 -37.5%
CC1=CC(=O)c2ccccc2C1=O
CCN(C(=O)c1cc2cc(Br)cc(OC)c2oc1=O)c1ccccc1 -12.2%
O=C(NC1CCCCCC1)c1ccc(CS(=O)c2ccc(Br)cc2)o1 (stereo not given) -27.2%
COc1cccc(C2c3c(-c4ccccc4O)n[nH]c3C(=O)N2Cc2cccnc2)c1 (stereo not given) -21.8%
CCOc1ccc(CNC(=O)C2=Cc3cc(Br)ccc3OC2)cc1OC -19.8%
COc1ccccc1NC(=O)c1oc2ccccc2c1NC(=O)COc1ccccc1OC 22.9%
COc1ccc(Cl)cc1NC(=O)CSc1nc(=O)[nH]c2c1CCCC2 -10.5%
CCOc1ccc(NC(=O)Cn2cc(C(=O)c3ccccc3)c(=O)c3cc4c(cc32)OCO4)cc1 -29%
Cc1ccc(Cn2c(=O)n(-c3ccc(C)c(C)c3)c(=O)c3c(C)c(C)sc32)cc1 -20.3%
Cc1ccc2oc(-c3ccc(NC(=O)c4cccc(F)c4)c(C)c3)nc2c1 -20.8%
COc1ccc(NC(=O)c2cc(C)nc3c2c(C)nn3-c2cccc(Cl)c2C)c(OC)c1 -19.7%
CC(=O)N1c2c(cc(Br)cc2S(=O)(=O)NCc2ccccc2Cl)CC1C (stereo not given) -22.1%
CN(C)CCOc1ccccc1Cc1ccccc1 -6.48%
COc1cc(Cl)c(NC(=O)CN(C)S(=O)(=O)c2ccc3c(c2)CCCC(=O)N3)c(OC)c1 -29%
COc1cc(NC(=O)N2CCC(CN3CCc4ccccc4C3)CC2)cc(OC)c1 -11.9%
CCOc1ccc(OCC)c(NC(=O)c2csc3c2CCCC3)c1 -3.75%
O=C1COc2cc(S(=O)(=O)CCC(=O)N3CCN(c4ccccc4)CC3)c(Cl)cc2N1 -24.8%
Cc1ccc(S(=O)(=O)NCCc2nnc3ccc(SCC(=O)Nc4ccc(OC(F)(F)F)cc4)nn23)cc1 -14.3%
CCCc1ccc(-c2ccc(C(=O)Oc3ccc(Br)cc3)cc2)nc1 -2.5%
CCOc1ccc(NC(=O)Cn2c(=O)c(CNc3ccccc3)cc3cc4c(cc32)OCCO4)cc1 -12.3%
COC(=O)c1ccc(CSc2nc3c([nH]c4ccccc43)c(=O)n2-c2cc(C)cc(C)c2)o1 -30.5%
N=C(N)N1CCc2ccccc2C1 -12.7% [at 6 µM, percent change from vehicle, -100% = no light]
CN(C(=O)Cn1ncc2c1-c1ccccc1OC2)c1ccc(Br)cc1 -21.3%
CCCCCn1c(CNC(=O)c2ccc(F)cc2)nc2ccccc21 -8.09%
CCS(=O)(=O)c1cccc(C(=O)N2CCN(c3nc4c(C)ccc(Cl)c4s3)CC2)c1 -47.9%
CCOC(=O)c1c(C)[nH]c(C)c1S(=O)(=O)N1CCC(C(=O)NCc2ccc(N(C)C)cc2)CC1 -4.09%
CN(C)C1(CNC(=O)COc2ccc(C(C)(C)C)cc2)CCCCC1 -7.28%
O=C(Nc1ccc2c(c1)OCO2)c1cc(-c2ccc(Cl)cc2)on1 -1.31%
CCCCCn1c(-c2cccc(C)c2)nc2ccccc21 -21.5%
COc1ccccc1OCC(=O)Nc1c(C(=O)c2ccc(C)cc2)oc2ccccc12 -8.63%
COc1ccccc1CNS(=O)(=O)c1ccc(N2CCCCS2(=O)=O)cc1 -9.31%
COc1ccc(OC)c(CCNC(=O)C(C)n2c(C)c3cnn(-c4ccccc4)c(=O)c3c2C)c1 (stereo not given) -11%
Cc1ccc(C(=O)N(CCCN)[C@@H](c2nc3cc(Cl)ccc3c(=O)n2Cc2ccccc2)C(C)C)cc1 -29%
COc1ccc(Cl)cc1C(=O)Nc1c2c(nn1-c1ccc(Cl)cc1)CS(=O)(=O)C2 -3.37%
Cc1cc(C)cc(-n2ccnc(NCc3ccc(F)cc3)c2=O)c1 -20.3%
COc1ccccc1CNS(=O)(=O)c1ccc2c(c1)CC(C)N2C(C)=O (stereo not given) -35.3%
O=C(NCc1ccccc1)c1ccc(CNS(=O)(=O)c2ccc(Br)cc2)cc1 -17.8%
CC1CCN(S(=O)(=O)c2ccc3c(c2)N(CC(=O)NC(C)c2ccccc2)C(=O)CS3)CC1 (stereo not given) -26%
CC(C)Cn1cc(NC(=O)N2CCN(c3cccc(Cl)c3)CC2)c2ccccc2c1=O -6.21%
Cc1ccc(C)c(N2CCN(S(=O)(=O)c3ccc4[nH]c5c(c4c3)CCCCC5)CC2)c1 -29.6%
CCc1ccc(NC(=O)N2CCOc3ccc(Cl)cc32)cc1 24.7%
COc1cc(Cl)c(S(=O)(=O)NCCc2c(C)[nH]c3c(C)cccc23)cc1Cl -27.1%
O=C(O)c1cc(=O)c2ccccc2o1 -0.832%
CCCn1c(=O)c2[nH]c(-c3cnn(Cc4cccc(C(F)(F)F)c4)c3)nc2n(CC)c1=O -0.363%
Cc1ccc(-c2nc(NC(=O)CSc3cc(C)c4ccccc4n3)ns2)cc1 -2.57%
Cc1cc(C)c(NC(=O)c2cc(S(=O)(=O)N3CCC4(CC3)OCCO4)ccc2F)c(C)c1 4.16%
CCCCN(CC)C(=O)CSc1nc2n[nH]c(C)c2c(=N)n1-c1cccc(Cl)c1 -47.5%
CCOC(=O)c1[nH]c(C)c(CCC(=O)N2CCN(c3cccc(OC)c3)CC2)c1C -11.4%
Cc1ccc(-c2noc(-c3ccccc3NC(=O)c3ccccc3)n2)cc1 21.6%
CCOc1ccc(NC(=O)Cn2ncc3c2-c2cc(C)ccc2OC3)cc1 -20.7%
CCC(=O)N1CCc2cc(Br)cc(S(=O)(=O)CCC(=O)NCc3ccccc3OC)c21 10.8%
COc1ccccc1C(=O)NCCn1cc(SCC(=O)Nc2ccccc2F)c2ccccc21 -44.4%
Cc1ccc(CNC(=O)C(=O)Nc2c3c(nn2-c2ccccc2)CSC3)cc1 -22.5%
COc1ccc(OC)c(NS(=O)(=O)c2ccc3c(c2)C(C)(C)C(=O)N3C)c1 -11.7%
Cc1ccc(C)c(NC(=O)N2CCN(C(=O)c3nsc4ccccc34)CC2)c1 -28.2%
COc1cc(Cl)c(C)cc1NC(=O)C1CCN(c2nc3ccccc3n3cccc23)CC1 -31.8%
COc1ccc(CNC(=O)c2cc3cc4cc(OC)ccc4nc3o2)cc1 11.9%
COc1cccc(CNC(=O)c2ccc3c(c2)c(C)c(C)n3Cc2ccccc2)c1 -9.98%
Cc1nnc(N2CCC(C(=O)NC3CCCCC3)CC2)c2nn(-c3ccccc3)c(C)c12 -7.82%
CCOc1ccccc1N(CC)C(=O)Cn1ncc2c([nH]c3ccccc32)c1=O -46.2%
Clc1cccc(-c2ccc(CNCCSc3nnnn3-c3ccccc3)o2)c1 -9.42%
O=C(c1ccccc1)N1CCN(CCc2ccncc2)CC1 -19.5%
CC(=O)c1ccc(NC(=O)c2nc3ccccc3nc2N2CCCCC2)cc1 -10.3%
COc1ccc(Cn2c(C(=O)O)c(CNCc3ccccc3F)c3ccc(OC)cc32)cc1 -28.6%
COC(=O)c1ccc(C2c3c(-c4ccccc4O)n[nH]c3C(=O)N2Cc2cccnc2)cc1 (stereo not given) 9.09%
CCCSc1ncc(Cl)c(C(=O)Nc2ccc(S(=O)(=O)N(C)c3ccccc3)cc2)n1 -37.3%
CCN(CCCNC(=O)Cn1ncc2c3ccccc3n(C)c2c1=O)Cc1ccccc1 -11.5%
CC1CCCN(C(=O)CSc2c3c(nc4cc(Cl)ccc24)CCCC3)C1 (stereo not given) -38.5%
CCc1ccc(NC(=O)CSc2nc(=O)n(Cc3ccccn3)c3c2CCC3)cc1 -35.7%
O=C(Nc1nnc(S(=O)(=O)N2CCCc3ccccc32)s1)c1cccc(Cl)c1 -91.3%
COc1cccc(C2C(C(=O)Nc3ccc(C)cc3C)=C(C)Nc3c(C(=O)Nc4ccccc4)cnn32)c1 (stereo not given) -20.1%
CC(C)OC(=O)[C@H](C)N[P@](=O)(OC[C@H]1O[C@@H](n2ccc(=O)[nH]c2=O)[C@](C)(F)[C@H]1O)Oc1ccccc1 -10.5%
NS(=O)(=O)c1cc(C(=O)O)c(NCc2ccco2)cc1Cl
COc1ccc(NC(=O)c2cc(S(=O)(=O)N3CCOCC3)ccc2OC)cc1 10.7%
CCn1nnc2c(N3CCOCC3)nc(-c3ccc(NC(=O)Nc4ccc(C(=O)N5CCN(C)CC5)cc4)cc3)nc21 -22.6%
CCc1cccc(C)c1NS(=O)(=O)c1c(C(=O)N2CCC(C)CC2)c(C)n(C)c1C -23.6%
